Laboratory results published in PubChem BioAssay AID1508642 (National Center for Advancing Translational Sciences (NCATS), 2021).
The campaign covered roughly 43,000 compounds. About 200 (0.47%) were called active. Inconclusive results (about 12%) are left out. The call rests on the fitted dose curve; in most records, active means well fitted cell-killing curve with a large enough effect; inconclusive means small, poorly fitted or top-dose-only effect, or effect the other way; inactive means flat fitted curve, though single readings scatter. The list shows a part of the results.

Experiment: Cell viability qHTS assay in S16 Pmp22-F2sN cells; further: nearly all actives have a fitted effect of over 65% in size
Conditions: S16 Pmp22-F2sN Schwann cells viability, CellTiter-Glo, 24 h; series mostly up to 57.5 µM; activity change, negative = cytotoxicity: at the top concentration
In short: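 Used to flag compounds lowering reporter output through toxicity, this quantitative HTS measures ATP-based CellTiter-Glo luminescence in S16 Pmp22-F2sN Schwann cells after 24 h compound exposure at 37C.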
On the % scale 0 is the no-effect control and ±100 the full control effect.

| SMILES | activity change, negative = cytotoxicity |
| --- | --- |
| CCN(CC)CCCNc1cc(-c2ccccc2)nc(C)n1 | inactive: -2.77% |
| O=S(=O)(c1ccc(Cl)cc1)c1nc(-c2ccccc2Br)oc1NCc1ccccc1 | inactive: -0.666% |
| CCn1c(C)c(C)c2cc(C(=O)NCCCN3CCCCC3C)ccc21 (configuration not stated) | inactive: 0.349% |
| COc1ccc(CNC(=O)CS(=O)Cc2nc(-c3ccc(OC)c(OC)c3)oc2C)cc1 (configuration not stated) | inactive: -0.741% |
| COc1ccc(Cn2c(=O)[nH]c3cc(C(=O)NCCC(C)C)ccc3c2=O)cc1 | inactive: 14.8% |
| Cc1ccc(N(CC(=O)Nc2cccc(Cl)c2C)S(=O)(=O)c2c(C)noc2C)cc1 | inactive: 5.09% |
| CCOc1ccc2nc(N3CCN(C(=O)c4ccc(S(=O)(=O)CC)cc4)CC3)sc2c1 | inactive: -28.4% |
| Cc1ccc(/C=C/C(=O)Nc2nc(-c3cccs3)ns2)cc1 | inactive: -1.13% |
| COc1ccc(-n2cc(C(=O)N(CCN(C)C)Cc3ccccc3)c3ccccc3c2=O)cc1 | inactive: -8.51% |
| COC(=O)c1c(SC)nc2ccccc2c1OCc1ccc(Br)cc1 | inactive: 19.1% |
| O=C(/C=C/c1ccco1)Nc1ccc(F)cc1 | inactive: 7.45% |
| CCOC(=O)C1CCCN(c2nc3c(S(=O)(=O)c4ccc(Br)cc4)nnn3c3ccsc23)C1 (configuration not stated) | inactive: -0.4% |
| Cc1ccccc1CNC(=O)c1nn(-c2ccccc2F)nc1CO | inactive: 0.85% |
| O=c1c2sccc2n(Cc2cc(=O)n3ccccc3n2)c(=O)n1-c1cc(F)ccc1F | inactive: 1.9% |
| CCn1nc(-c2ccccc2)c(-c2ccccc2)c(C(=O)Nc2ccc(S(N)(=O)=O)cc2)c1=O | inactive: 19.2% |
| COc1ccc(C(=O)Nc2ccc(-c3nnc4n3CCCCC4)cc2)cc1 | inactive: 20.3% |
| COc1cccc2c1Oc1ncccc1N(C(=O)CCC(=O)NCCC(C)C)C2 | inactive: -0.721% |
| CCc1cccc(C)c1NC(=O)Cn1c(=O)n(-c2ccc(C)cc2)c(=O)c2c1cnn2C | inactive: 13.5% |
| COc1ccc(CCn2c(=O)c3cccnc3n(CC(=O)Nc3c(C)cccc3C)c2=O)cc1OC | inactive: -0.696% |
| O=S(=O)(c1ccc(Cl)cc1)c1nc(-c2cccc(Br)c2)oc1NCc1ccccc1 | inactive: 3.99% |
| Cc1cccc(CCNC(=O)c2ccc3c(c2)nc2n3CCC(C)C2)c1 (configuration not stated) | inactive: 13.4% |
| COc1ccc(OC)c(NC(=O)c2ccc3c(SCC(=O)O)c4c(nc3c2)CCCC4)c1 | inactive: 0.538% |
| Cc1ccc2nc(COc3ccccc3NC(=O)c3ccccc3C)cc(=O)n2c1 | inactive: 6.44% |
| COc1ccc(-c2nnc(SCC(=O)Nc3cc(OC)ccc3OC)nc2-c2ccc(OC)cc2)cc1 | inactive: -0.739% |
| COc1cccc(-c2ccc(-c3noc(-c4ccccc4Br)n3)c(OC)n2)c1 | inactive: 15.6% |

| SMILES | activity change, negative = cytotoxicity |
| --- | --- |
| CCC(=O)N1c2ccccc2CC1C(=O)NCc1cccc(OC)c1OC (configuration not stated) | inactive: 18% |
| Cc1cccc(-c2noc(-c3ccc(NCc4ccco4)c([N+](=O)[O-])c3)n2)c1 | inactive: 21.2% |
| O=C(c1ccco1)N1CCN(c2nc3c(F)cc(F)cc3s2)CC1 | inactive: -10.5% |
| Cc1ccn2c(=O)cc(COc3ccc(NC(=O)COc4ccccc4)cc3)nc2c1 | inactive: 11% |
| Cc1ccc(S(=O)(=O)N2CCN(Cc3cc(Br)ccc3O)CC2)cc1 | inactive: -23.4% |
| CCC(=O)N1CCc2cc(Br)cc(S(=O)(=O)N3CCCC(C(=O)NCc4ccc(F)cc4)C3)c21 (configuration not stated) | inactive: 13.8% |
| Cn1cc(S(=O)(=O)N2CCCCCC2)cc1C(=O)N1CCN(c2cccc(C(F)(F)F)c2)CC1 | inactive: 4.25% |
| CCOc1ccc(CCNC(=O)C2CCN(Cc3nc(-c4ccc(OC)c(OC)c4)oc3C)CC2)cc1OCC | inactive: 11.9% |
| COc1cc(-c2nc(-c3ccc4c(c3)[nH]c(=O)n4C)no2)cc(OC)c1OC | inactive: 18.8% |
| CCOc1ccccc1NC(=O)C1CCN(S(=O)(=O)c2ccc3[nH]c(=O)ccc3c2)CC1 | inactive: 8.76% |
| O=C1CSC2(C(=O)N(Cc3ccccc3)c3ccccc32)N1c1cccc(F)c1 (configuration not stated) | inactive: -2.08% |
| CCc1ccc(NC(=O)COC(=O)CCCC2=NS(=O)(=O)c3ccccc3N2)cc1 | inactive: 0.223% |
| N#Cc1ccccc1NC(=O)C(=O)NCCc1csc(-c2ccc(C(F)(F)F)cc2)n1 | inactive: 3.14% |
| COc1cccc(CNC(=O)CCCn2ncn3c(cc4occc43)c2=O)c1OC | inactive: 7.92% |
| CCSc1ncc(Cl)c(C(=O)Nc2ccc(S(=O)(=O)Nc3ncccn3)cc2)n1 | inactive: -0.198% |
| Cc1cccc(C(=O)Nc2nc3nc(-c4ccccc4)cc(=O)n3[nH]2)c1 | inactive: -0.21% |
| CCC1CN(C(=O)NCc2ccccc2)c2cc(Cl)ccc2O1 (configuration not stated) | inactive: -21.2% |
| O=C(Nc1cccc(OCc2cc(=O)n3ccccc3n2)c1)c1ccccc1Br | inactive: -0.309% |
| CCN(CC)c1cc(C)c2cc(NC(=O)c3ccccc3Cl)ccc2n1 | inactive: -26.5% |
| CCOC(=O)c1ccc(NC(=O)CSc2ccc(-c3ccccn3)nn2)cc1 | inactive: -20.1% |
| COc1ccc(S(=O)(=O)NCCc2nnc3ccc(SCC(=O)Nc4cc(C)cc(C)c4)nn23)cc1 | inactive: -20.7% |
| CC(C)(C)OC(=O)N1CCC(c2c(C(=O)Nc3ccc4c(c3)OCCO4)cnn2-c2ccc(F)cc2F)CC1 | inactive: 1.24% |
| COc1ccc(N2CC(NC(=O)COc3ccc(F)cc3)CC2=O)cc1OC (configuration not stated) | inactive: -1.75% |
| CCOC(=O)C(=O)NCC(c1cccnc1)N1CCN(c2ccccc2)CC1 (configuration not stated) | inactive: -1.41% |
| CCOC(=O)CC(NC(=O)c1cc2cc(Br)cc(OC)c2oc1=O)c1ccc(OC)cc1 (configuration not stated) | inactive: -0.527% |

| SMILES | activity change, negative = cytotoxicity |
| --- | --- |
| O=C(NCc1ccc2c(c1)CCN2C(=O)c1ccncc1)c1ccccc1Cl | inactive: 1% |
| Cn1c2ccccc2c2c(C(=O)N3CCN(c4cccc(Cl)c4)CC3)cn(C3CCCCC3)c(=O)c21 | inactive: 1.44% |
| Cn1c(=O)c2c(nc(CN3CCN(c4ccccc4F)CC3)n2Cc2ccccc2F)n(C)c1=O | inactive: -6.12% |
| COc1ccc(OC)c(CCNC(=O)c2cc3cccc4c3n2CC(C)S4)c1 (configuration not stated) | inactive: -6.46% |
| COc1ccccc1CCNC(=O)C(=O)NCC(c1ccco1)S(=O)(=O)c1ccc(F)cc1 (configuration not stated) | inactive: -8.51% |
| COc1cccc(N2CCN(C(=O)C3CCCN(S(=O)(=O)c4ccc5c(c4)oc(=O)n5C)C3)CC2)c1 (configuration not stated) | inactive: -10.2% |
| Cn1c(=O)n(C)c2cc(N3CCOCC3)c(NC(=O)c3ccc(Cl)cc3)cc21 | inactive: 3.05% |
| CC1=C(C(=O)Nc2cc(Cl)ccc2C)C2(CCCCC2)OC1=O | inactive: 1.01% |
| O=C(NCCc1csc(-c2ccc(F)cc2)n1)c1ccco1 | inactive: -5.04% |
| Cc1cc(C)cc(NC(=O)CCc2nnc3n(C)c(=O)c4sccc4n23)c1 | inactive: 3.99% |
| Cc1cc(C)n2nc(CNC(=O)c3ccccc3Cl)nc2n1 | inactive: -4.15% |
| CCOc1ccc(CN2CCc3nc(N4CCN(c5ncccn5)CC4)ncc3C2)cc1OC | inactive: -5.95% |
| COC(=O)C1=C(C)N=C2SCCC(=O)N2C1c1ccc(OCc2ccccc2)c(OC)c1 (configuration not stated) | inactive: 14.9% |
| CCOC(=O)c1c(C)[nH]c(C)c1S(=O)(=O)N(C)CC(=O)N1CCN(c2ccc(Cl)cc2)CC1 | inactive: 1.9% |
| CCOc1ccc(N2C(=O)CS(=O)(=O)C23C(=O)N(Cc2cccc(Cl)c2)c2ccccc23)cc1 (configuration not stated) | inactive: -3.25% |
| CCOc1ccc(NC(=O)C2CCN(c3nc4ccccc4[nH]3)CC2)cc1 | inactive: 6.25% |
| CCSc1ccc(C(=O)Nc2ccc(-c3nc4ccc(C)cc4s3)cc2)cc1 | inactive: -21.4% |
| CCc1c(C)nc2nncn2c1Nc1ccc(Cl)cc1 | inactive: -1.89% |
| COc1ccc(-n2c(=O)c3c4c(sc3n(Cc3ccc(C)cc3C)c2=O)CCC4)c(OC)c1 | inactive: -16.1% |
| COc1cc(C(CC(=O)NCc2ccccc2)N2Cc3ccccc3C2=O)cc(OC)c1OC (configuration not stated) | inactive: 1.4% |
| CCC(C(=O)Nc1ccc(C(C)=O)cc1)n1cnc2nc3c(cc2c1=O)CCCC3 (configuration not stated) | inactive: -5.64% |
| COc1ccc(OC)c(CNC(=O)Cn2ncc3c([nH]c4ccc(C)cc43)c2=O)c1 | inactive: 10.4% |
| CCCC(=O)Nc1ccc2nc(SCC(=O)N3CCOCC3)sc2c1 | inactive: 1.98% |
| CC(C)OCCCNC(=O)CN1C(=O)c2ccccc2Sc2ncccc21 | inactive: 10.9% |
| O=C(Nc1cccc2c1CCCC2)N1CCOc2ccc(Cl)cc21 | inactive: 4.31% |

| SMILES | activity change, negative = cytotoxicity |
| --- | --- |
| Cc1oc2ncnc(N3CCOCC3)c2c1C(=O)NCc1ccc(Cl)cc1 | inactive: 1.54% |
| N#C/C(=C\c1ccc(-c2cccc(Cl)c2)o1)C(=O)Nc1cccc(C(F)(F)F)c1 | inactive: -25% |
| Fc1ccc(N2CCN(c3ncnc4[nH]ncc34)CC2)cc1 | inactive: -6.1% |
| CCOC(=O)c1cc(-c2ccc(C)cc2)n(CC(=O)Nc2ccc(OC)cc2OC)c1C | inactive: 8.87% |
| Cc1ccc(NC(=O)CSc2nccn2C2CCCC2)cc1Cl | inactive: -1.39% |
| Cc1cccc(C(C)C)c1NC(=O)c1ccc2c(c1)CCCN2S(C)(=O)=O | inactive: -11.5% |
| CCCn1cc(S(=O)(=O)c2cccc(Cl)c2)c(=O)c2cc(F)c(N3CCCC3)cc21 | inactive: -23.4% |
| COc1ccc(N2CCN(C(c3ccc(F)cc3)c3sc4nc(-c5ccco5)nn4c3O)CC2)cc1 (configuration not stated) | inactive: 2.55% |
| Cc1ccc(OCC(=O)Nc2nonc2-c2ccc(Br)cc2)cc1 | inactive: -3.17% |
| CCc1cc(=O)[nH]c(SCc2nc(-c3ccc(C(F)(F)F)cc3)no2)n1 | inactive: -1.36% |
| CCC(C)NC(=O)c1cnn(-c2cccc(F)c2)c1-n1cccc1 (configuration not stated) | inactive: -5.29% |
| CC(=O)N1CCCC1c1nc2ccccc2n1Cc1ccccc1F (configuration not stated) | inactive: 21.1% |
| Cc1ccc(S(=O)(=O)N(CC(=O)NCCSc2ccc(Cl)cc2)c2cccc(Cl)c2)cc1 | inactive: 2.56% |
| CCN1CCN(C(c2ccc(F)cc2)c2sc3nc(-c4ccco4)nn3c2O)CC1 (configuration not stated) | inactive: 8.32% |
| Cc1ccc(S(=O)(=O)CCC(=O)N2CCN(c3nc4c(C)c(C)ccc4s3)CC2)cc1 | inactive: -28.4% |
| COC(=O)c1cc(C)nc2c1c(=O)nc(SCc1ccccc1Cl)n2C1CC1 | inactive: -16.3% |
| Cc1ccc(OCC(=O)Nc2ccc3nn(-c4ccc(C)cc4)nc3c2)cc1 | inactive: 5.26% |
| CCOC(=O)N1CCC2(CC1)OC(=O)C(C)=C2C(=O)NCc1ccccc1OC | inactive: 10.7% |
| Cn1cnc(S(=O)(=O)N2CCC(C(=O)Nc3ccc(Cl)c(C(F)(F)F)c3)CC2)c1 | inactive: -4.43% |
| COc1ccccc1N1CCN(C(=O)CNS(=O)(=O)c2ccc(Br)s2)CC1 | inactive: -17.6% |
| Cc1nn(CCC(=O)Nc2ccccc2Br)c(=O)c2nn(-c3ccccc3)c(C)c12 | inactive: -1.18% |
| Cc1cccc(CCNC(=O)CCS(=O)(=O)c2cc3c(cc2C)NC(=O)CO3)c1 | inactive: 0.173% |
